The RNAGym collection of RNA variant scans (doi:10.1073/pnas.2313332121)
This sample is rich in variants without activity.

B1: TPR 5TU (parent)
chain: GGAUCUUCUCGAUCUAACAAAAAAGACAAAUCUGCCACAAAGCUUGAGAGCAUCUUCGGAUGCAGAGGCGGCAGCCUUCGGUGGCGCGAUAGCGCCAACGUUCUCAACUAUGACACGCAAAACGCGUGCUCCGUUGAAUGGAGUUUAUCAUG

Variants of: B1
Assay: polymerase ribozyme fitness, log enrichment relative to wild type (log ratio); higher = more active; in vitro selection for triplet polymerase activity
Outline: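 To select mutant libraries of each subunit of a heterodimeric triplet polymerase ribozyme, built by PCR and transcribed, each was annealed with a biotinylated primer, partner subunit and triplets, then incubated frozen at −7 °C. Extended constructs were gel-excised, captured on streptavidin beads and amplified by RT-PCR, in one round carried out in triplicate. Illumina sequencing of input and output libraries kept genotypes with ≥10 input reads and ≥1 read per output. Fitness is the base-2 logarithm of genotype enrichment relative to wild-type enrichment, from inverse-variance-weighted replicate averages.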

Variant	polymerase ribozyme fitness (log ratio)
A52U C57U C95G C116G A138C	≤ -4.2
A52U C72U G86C U148A	≤ -4.2
A52U C75G A98G U102C	≤ -4.2
A52U C75U A147U	-2.82
A52U C76U A119U U134A	≤ -4.2
A52U C85A G126A G140C	≤ -4.2
A52U C85U C95G G124U U135A	≤ -4.2
A52U C87U C103U	-2.81
A52U C93U A119U G124U	-3.24
A52U G59C A91U	≤ -4.2
A52U G65C C75A C95U A115G	≤ -4.2
A52U G65C C76U U78G C87A C103G U135A G140A	≤ -4.2
A52U G67A C93A	≤ -4.2
A52U G81A C87A A97U U104G G126C U134G G136C	≤ -4.2
A52U G83A	-2.83
A52U G84A G143C	-3.92
A52U G88C C96G	≤ -4.2
A52U U53A C57A G86A	-1.31
A52U U53G U61A A91G U130G U144G	≤ -4.2
A52U U56A A66U C93A C123G G143A U146A	≤ -4.2
A52U U56A C87A A120U G141C	≤ -4.2

Variant	polymerase ribozyme fitness (log ratio)
A52U U56G A73U G92C A110U A115U G152A	≤ -4.2
A52U U78C U102C	-2.88
A52U U82G G84U G86A G124U U134C	≤ -4.2
A52U U104A G133C G141C U146G	≤ -4.2
U53A A60C U90C C93U A147C	≤ -4.2
U53A A60G A113G U127C	≤ -4.2
U53A A60G C96U A106U U139G	-2.41
U53A A64G G88A	≤ -4.2
U53A A66C U127G	≤ -4.2
U53A A73G C85U G141A	≤ -4.2
U53A A91U	≤ -4.2
U53A A91U G140A A147G	≤ -4.2
U53A A98U	-1.39
U53A A107U	-2.93
U53A A147G	-3.69
U53A C54U U55A A60U U77G C85U G92A G112A A121U	≤ -4.2
U53A C57A C69G A91C	≤ -4.2
U53A C57G	-2.09
U53A C57G U78G	≤ -4.2
U53A C57U A97G	-1.24
U53A C57U C87G G124A G143C	≤ -4.2

Variant	polymerase ribozyme fitness (log ratio)
U53A C57U G143C	-3.52
U53A C63G G70A C79U G88C	≤ -4.2
U53A C63U A89U A98G U127G	≤ -4.2
U53A C63U C79G C87A C95A U101G	≤ -4.2
U53A C63U C99G	-3.81
U53A C69A U82A A119G	≤ -4.2
U53A C69G G86U C114G	≤ -4.2
U53A C69U A89G G94U C96U A115U U148G U151G	≤ -4.2
U53A C72A U78G U146G	≤ -4.2
U53A C72G G128U	≤ -4.2
U53A C75U C85U C123U C125A	-2.32
U53A C75U C96A C103G	≤ -4.2
U53A C76A G92A A122U	≤ -4.2
U53A C76G G92U U127A G136U	≤ -4.2
U53A C79A A150U	≤ -4.2
U53A C79A C87G	≤ -4.2
U53A C79U G83A C87U	≤ -4.2
U53A C85A C96A A137G	≤ -4.2
U53A C85A G124U G143C U146C	≤ -4.2
U53A C85U A91C	≤ -4.2
U53A C85U C87A C95U G143A	≤ -4.2

Variant	polymerase ribozyme fitness (log ratio)
U53A C87A G94A	≤ -4.2
U53A C87G G141C	≤ -4.2
U53A C93A C99U G141U	≤ -4.2
U53A C93A C105A A119G	≤ -4.2
U53A C93G A119C	≤ -4.2
U53A C93U G140A	≤ -4.2
U53A C93U U148C	≤ -4.2
U53A C103G	-3.95
U53A C118G	-2.5
U53A C132U U146G	-3.87
U53A G58A G71A G126A U135G	≤ -4.2
U53A G58U C95A U144A C149A	≤ -4.2
U53A G71U G86U C93A A97C C116G U151A G152U	≤ -4.2
U53A G80C G143U	≤ -4.2
U53A G81A C85A C131U	-4.19
U53A G81C C95U A107G U134C U139A	≤ -4.2
U53A G83A C118A	-1.88
U53A G83C G94U A97G U101G U102G C116A G140U	≤ -4.2
U53A G86C G136C	≤ -4.2
U53A G88C A91G G133U G136A	≤ -4.2
